# Data published in PubChem BioAssay AID1347073 (National Center for Advancing Translational Sciences (NCATS), 2019).
# The campaign covered roughly 45,000 compounds. About 200 (0.44%) were called active. The shares of active, inactive and inconclusive entries below differ from those in the screen. Calls come from the whole dose curve; as a rule, active = well fitted activation curve with a large enough effect; inconclusive = small, poorly fitted or top-dose-only effect; inactive = no such curve, though single readings can be large or run the other way. A potency beside an inconclusive call is a rough fit, not a confirmed value.
# Assay: qHTS of TDP-43 Inhibitors: NCGC Sytravon Library Screen; note: nearly all actives have a fitted effect of over 55% in size; for growth rescue (activation): 0% is about no effect
# Conditions: yeast TDP-43 toxicity rescue, BacTiter-Glo growth, 24 h; growth rescue (activation): at 46.1 µM (top of the series)
# How it was run: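 TDP-43-expressing yeast, pregrown in raffinose, seeded at OD600 0.02 in galactose medium with compound for 24 hr at 30 deg C. Growth read by BacTiter-Glo luminescence, so rescue of toxicity appears as activation.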
# Potency is the fitted concentration of half-maximal effect; tags give direction and shape of the fitted curve.
Structure (SMILES),Potency,growth rescue (activation)
Cc1onc(-c2ccccc2Cl)c1-c1nc(-c2ccccn2)no1,"inconclusive: 15.8 µM [activator, single point]",–
O=C(O)c1ccc(CSC2CCCCC2)cc1,"inconclusive: 11.2 µM [activator, partial curve, poor fit]",–
COc1cccc(Oc2ccc3nnc(C(F)(F)F)n3n2)c1,"inconclusive: 35.5 µM [activator, single point]",–
NS(=O)(=O)c1cccc(NC(=O)CN2CCCc3ccccc32)c1,inactive,–
CCCCCOc1ccc(/C=C/c2c([N+](=O)[O-])c(=O)n(C)c(=O)n2C)cc1,inactive,–
CCOc1ccc(-n2cc(-c3ccccc3)c3c(=O)[nH]cnc32)cc1,"inconclusive: 35.5 µM [activator, partial curve, poor fit]",–
Cc1ccc(C)c(N2CCN(c3nnnn3-c3ccccc3)CC2)c1,"inconclusive: 22.4 µM [activator, partial curve, poor fit]",–
CC(=O)NC(c1ccc(F)c(F)c1)c1nc(-c2cccc(C(C)C)c2)cs1 (configuration not stated),–,inconclusive: 72.9% [activator]
N#C/C(=C/c1cccc(O)c1)C(=O)NCc1ccc(Cl)cc1,"inconclusive: 6.31 µM [activator, partial curve, poor fit]",–
O=S(=O)(NCCCc1ccccc1)c1ccc(F)c(F)c1,"inconclusive: 10 µM [activator, partial curve, poor fit]",–
C/C(=N\NC(=O)c1ccc(NS(=O)(=O)c2cccs2)cc1)c1ccc(O)cc1O,"inconclusive: 11.2 µM [activator, partial curve, poor fit]",–
O=C(c1sc2ccccc2c1Cl)N1CCN(c2ccccc2F)CC1,"inconclusive: 15.8 µM [activator, single point]",–
OC(CNc1ncnc2sccc12)c1ccccc1 (configuration not stated),inactive,–
CCc1ccc(C(O)c2ncc(-c3ccccc3OC)[nH]2)cc1 (configuration not stated),inactive,–
CC1CCCN(c2ccc(C(=O)NCc3ccc4c(c3)OCO4)cc2[N+](=O)[O-])C1 (configuration not stated),"inconclusive: 2.51 µM [activator, partial curve]",–
COc1ccccc1N1CC(C(=O)OCC(=O)Nc2c(C)cccc2C)CC1=O (configuration not stated),inactive,–
CCCCn1cnc2cc(NC(=O)c3cc(OC)c(OC)c(OC)c3)ccc21,inactive,–
CC1(C(=O)NCc2cccs2)Cc2c(-c3ccccc3)ccnc2O1 (configuration not stated),–,inconclusive: 35.1% [activator]
CCOC(=O)c1cccc(NC(=O)N2Cc3ccccc3Oc3ncccc32)c1,inactive,–
O=C(CN1C(=O)C2C3CCC(C3)C2C1=O)Oc1ccc2ccccc2c1 (configuration not stated),"inconclusive: 35.5 µM [activator, partial curve, poor fit]",–
CCOC(=O)C1(Cc2ccc(Cl)cc2)CCN(C(=O)c2ccoc2)CC1,"inconclusive: 15.8 µM [activator, single point]",–
CC(NC(=O)Cc1ccc([N+](=O)[O-])cc1)c1ccc2c(c1)OCO2 (configuration not stated),"inconclusive: 14.1 µM [activator, single point]",–
CN(C)c1nc(N/N=C/c2ccccc2O)nc(Nc2ccc(F)cc2)n1,"inconclusive: 22.4 µM [activator, single point]",–

Structure (SMILES),Potency,growth rescue (activation)
Cc1ccc(CN2CCN(/N=C/C=C/c3ccccc3[N+](=O)[O-])CC2)cc1,inactive,–
COc1ccc(-c2csc3ncnc(N4CCN(CCO)CC4)c23)cc1,inactive,–
CCc1sc(C(=O)Nc2ccc3nc(C)sc3c2)cc1C,active: 11.2 µM,–
COc1cccc(C(O)c2nc(-c3cccc4cccnc34)cs2)c1 (configuration not stated),inactive,–
O=C1CC(SC2=NCCS2)C(=O)N1c1ccc(Br)cc1 (configuration not stated),"inconclusive: 10 µM [activator, partial curve, poor fit]",–
O=C(c1ccc(COc2ccc(Cl)cc2)cc1)N1CCCCC1,"inconclusive: 12.6 µM [activator, partial curve, poor fit]",–
Cc1ccc(C)c(S(=O)(=O)Nc2cc(SCC(=O)O)c(O)c3ccccc23)c1,"inconclusive: 14.1 µM [activator, partial curve, poor fit]",–
CC1(Cc2ccc(Cl)s2)C(=O)Nc2c(Cl)ccc(Cl)c21 (configuration not stated),"inconclusive: 7.94 µM [activator, partial curve, poor fit]",–
COc1cc(C)ccc1OCCOCCOc1ccc(C)cc1[N+](=O)[O-],"inconclusive: 28.2 µM [activator, single point]",–
O=S(=O)(Nc1nc2ccccc2nc1NCC1CCCO1)c1cccc(Cl)c1 (configuration not stated),"inconclusive: 35.5 µM [activator, partial curve, poor fit]",–
Cn1c(=O)c2c(nc(N/N=C/c3cccs3)n2Cc2ccc(Br)cc2)n(C)c1=O,"inconclusive: 15.8 µM [activator, partial curve, poor fit]",–
Cc1ccc(N2C(S)=C(C#N)C(=O)NC23CCCCC3)cc1,"inconclusive: 28.2 µM [activator, partial curve, poor fit]",–
Cc1ccc(C)c(OCCN2C(=O)NC3(CCc4ccccc4C3)C2=O)c1 (configuration not stated),"inconclusive: 35.5 µM [activator, single point]",–
COc1cccc(C(=O)/C=C/Nc2ccc(NC(C)=O)cc2)c1,"inconclusive: 17.8 µM [activator, single point]",–
COC(=O)c1ccccc1NC(=O)C1=C(C)C(=O)OC12CCC(C)CC2 (configuration not stated),"inconclusive: 20 µM [activator, partial curve]",–
O=C1CN(C(=O)CNCc2ccccc2Cl)c2ccccc2N1,"inconclusive: 35.5 µM [activator, single point]",–
CCN(C(=O)CSc1cc(-c2ccccc2)c2ccc(OC)cc2n1)C1CCS(=O)(=O)C1 (configuration not stated),"inconclusive: 35.5 µM [activator, single point]",–
N#C/C(=C\c1ccccc1)C(=O)N1CCN(c2ccccc2F)CC1,inactive,–
O=C(Nc1ccccc1)c1cc(C2CCCN(C(=O)CCc3ccccc3)C2)on1 (configuration not stated),–,inconclusive: 116% [activator]
CC(Sc1nnc(COc2ccc(Cl)cc2)n1-c1ccccc1)C(=O)O (configuration not stated),inactive,–
CC1(C(=O)NS(=O)(=O)c2ccc(Cl)s2)CCN1C(=O)C1(c2ccc(Cl)cc2)CCC1 (configuration not stated),"inconclusive: 35.5 µM [activator, single point]",–
CCOC(=O)c1sc(N(Cc2ccccc2)C(=O)CCl)nc1C,"inconclusive: 14.1 µM [activator, partial curve, poor fit]",–
CCCS(=O)(=O)NC(=O)C1(C)CCCN(C(=O)c2cc(-c3cccs3)oc2C)C1 (configuration not stated),inactive,–

Structure (SMILES),Potency,growth rescue (activation)
CC1Cc2ccccc2N1C(=O)c1ccc(F)c(S(=O)(=O)N2CCOCC2)c1 (configuration not stated),"inconclusive: 10 µM [activator, partial curve, poor fit]",–
Cc1ccc(/C=C/C(=O)N2CCN(c3ncccn3)CC2)o1,"inconclusive: 35.5 µM [activator, single point]",–
Cc1cc(F)ccc1Nc1nc2ccc(Cl)cc2n2cnnc12,inactive,–
CSc1nc2ccc(NS(=O)(=O)c3cccc(Cl)c3Cl)cc2s1,"inconclusive: 10 µM [activator, partial curve, poor fit]",–
N#C/C(=C\c1cccc(NC(=O)c2ccccc2Cl)c1)C(=O)NCCc1ccccc1,"inconclusive: 25.1 µM [activator, single point]",–
O=C(NCc1cccs1)c1cccc2c(-c3ccc(F)c(F)c3)coc12,"inconclusive: 17.8 µM [activator, single point]",–
Cc1cc(Nc2cccc(Cl)n2)n(-c2ccccc2)n1,"inconclusive: 35.5 µM [activator, single point]",–
CCOC(=O)c1c(-c2ccc(Br)cc2)csc1NC(=O)c1ccc(C(C)(C)C)cc1,inactive,–
Cc1ccc(N2C(=O)C3C4C=CC(CNC(=S)N5CCN(c6cccc(C)c6)C(C)C5)(O4)C3C2=O)cc1 (configuration not stated),"inconclusive: 2.51 µM [activator, full curve, poor fit]",–
O=C(c1cc(COc2ccc(F)cc2F)on1)N1CC[C@@H]2CCCC[C@H]2C1,"inconclusive: 28.2 µM [activator, partial curve, poor fit]",–
O=C(/C=C/c1ccc(Cl)cc1Cl)NCCSc1ccccc1,"inconclusive: 15.8 µM [activator, partial curve, poor fit]",–
CN(C)c1ccc(C(=O)c2ccccc2C(=O)O)cc1[N+](=O)[O-],inactive,–
C=CCn1c(SCc2csc(-c3ccc(C)cc3)n2)nnc1-c1ccccc1OC,"inconclusive: 20 µM [activator, single point]",–
O=c1c(Cl)c(Cl)cnn1Cc1nnc(-c2ccccc2Br)o1,"inconclusive: 11.2 µM [activator, partial curve, poor fit]",–
CCOc1ccccc1CNC(=O)c1ccc2c(c1)N(CC)CCS2,"inconclusive: 12.6 µM [activator, partial curve]",–
COc1ccc(C(=O)N/C(=C/c2ccc(Cl)cc2)C(=O)Nc2ccc(C(=O)O)cc2)cc1,inactive,–
CCOn1c(=O)c(-c2cccc(Br)c2)[n+]([O-])c2ccccc21,inactive,–
CC(O)(c1cccc(F)c1)c1nc(-c2cc3ccccc3o2)cs1 (configuration not stated),–,inconclusive: -93.4% [activator]
C=C(C)C1Cc2c(C)nn(-c3nc(C)cc(C)n3)c2C1 (configuration not stated),"inconclusive: 35.5 µM [activator, single point]",–
COc1ccc(C(C)(O)c2nc(-c3cccc(F)c3)cs2)cc1 (configuration not stated),–,inconclusive: 134% [activator]
O=C(Nc1cccc(F)c1)c1cc(S(=O)(=O)NCCC2=CCCCC2)ccc1F,"inconclusive: 35.5 µM [activator, single point]",–
